# Experimental data published in the supplement of paper PMC12230231.
# ± gives the standard deviation of the averaged measurements. Restriction of a single-cycle SIVsab GFP reporter by TRIM5α v1-loop variants in CRFK cells. Human variants: read share among cells still uninfected after two challenges over input, higher = gained restriction. Rhesus variants: share among infected cells over input, higher = lost restriction. Reporter dose not given per row. No active / inactive call per row; the paper calls a change when both replicates lie above its controls (mean + 2 SD of stop or wild-type variants, or the top frameshift score). Residues outside the varied loop are taken from Swiss-Prot. The paper reads the human single-substitution scores as noise; they and the rhesus combinations repeat poorly (rank correlation 0.3 to 0.4), indel scores repeat only for the top variants, rhesus substitutions well (0.9).
# Test system: SIVsab (simian immunodeficiency virus of sabaeus monkeys), single-cycle GFP reporter, in CRFK cells
# Assay: enrichment among infected cells over input (fold); higher = weaker restriction
# Details: library: human / rhesus combinations
# Procedure: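 Pools of CRFK cells expressing variants of the TRIM5α v1 loop were challenged with the single-cycle reporter, sorted by GFP and sequenced; mean of two replicates.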
row,Sequence,enrichment
1,"MASGILLNVKEEVTCPICLELLTEPLSLHCGHSFCQACITANHKKSMLYKEGERSCPVCRISYQPENIQPNRHVANIVEKLREVKLSPEEGQKVDHCARHGEKLLLFCQEDSKVICWLCERSQEHRGHHTFLMEEVAQEYHVKLQTALEMLRQKQQEAEKLEADIREEKASWKIQIDYDKTNVSADFEQLREILDWEESNELQNLEKEEEDILKSLTKSETEMVQQTQYMRELISELEHRLQGSMMDLLQGVDGIIKRIENMTLKKPKTFHKNQRRVFRAPDLKGMLDMFRELTDARRYWVDVTLAPNNISHAVIAEDKRQVSSRNPQIMYGARGTLFTFPTLVNFNYCTGVLGSQSITSGKHYWEVDVSKKSAWILGVCAGFQSDAMYNIEQNENYQPKYGYWVIGLQEGVKYSVFQDGSSHTPFAPFIVPLSVIICPDRVGVFVDYEACTVSFFNITNHGFLIYKFSQCSFSKPVFPYLNPRKCTVPMTLCSPSS [rhesus TRIM5α, 332-344 = GARGTLFTFPTLV]",1.74 ± 1.1
2,"MASGILLNVKEEVTCPICLELLTEPLSLHCGHSFCQACITANHKKSMLYKEGERSCPVCRISYQPENIQPNRHVANIVEKLREVKLSPEEGQKVDHCARHGEKLLLFCQEDSKVICWLCERSQEHRGHHTFLMEEVAQEYHVKLQTALEMLRQKQQEAEKLEADIREEKASWKIQIDYDKTNVSADFEQLREILDWEESNELQNLEKEEEDILKSLTKSETEMVQQTQYMRELISELEHRLQGSMMDLLQGVDGIIKRIENMTLKKPKTFHKNQRRVFRAPDLKGMLDMFRELTDARRYWVDVTLAPNNISHAVIAEDKRQVSSRNPQIMYQAPGTLFQSLTNFNYCTGVLGSQSITSGKHYWEVDVSKKSAWILGVCAGFQSDAMYNIEQNENYQPKYGYWVIGLQEGVKYSVFQDGSSHTPFAPFIVPLSVIICPDRVGVFVDYEACTVSFFNITNHGFLIYKFSQCSFSKPVFPYLNPRKCTVPMTLCSPSS [rhesus TRIM5α, 332-344 = QAPGTLFQSLT]",0.635 ± 0.058
3,"MASGILLNVKEEVTCPICLELLTEPLSLHCGHSFCQACITANHKKSMLYKEGERSCPVCRISYQPENIQPNRHVANIVEKLREVKLSPEEGQKVDHCARHGEKLLLFCQEDSKVICWLCERSQEHRGHHTFLMEEVAQEYHVKLQTALEMLRQKQQEAEKLEADIREEKASWKIQIDYDKTNVSADFEQLREILDWEESNELQNLEKEEEDILKSLTKSETEMVQQTQYMRELISELEHRLQGSMMDLLQGVDGIIKRIENMTLKKPKTFHKNQRRVFRAPDLKGMLDMFRELTDARRYWVDVTLAPNNISHAVIAEDKRQVSSRNPQIMYQARGTRFTFPTLTNFNYCTGVLGSQSITSGKHYWEVDVSKKSAWILGVCAGFQSDAMYNIEQNENYQPKYGYWVIGLQEGVKYSVFQDGSSHTPFAPFIVPLSVIICPDRVGVFVDYEACTVSFFNITNHGFLIYKFSQCSFSKPVFPYLNPRKCTVPMTLCSPSS [rhesus TRIM5α, 332-344 = QARGTRFTFPTLT]",1.39 ± 0.021
4,"MASGILLNVKEEVTCPICLELLTEPLSLHCGHSFCQACITANHKKSMLYKEGERSCPVCRISYQPENIQPNRHVANIVEKLREVKLSPEEGQKVDHCARHGEKLLLFCQEDSKVICWLCERSQEHRGHHTFLMEEVAQEYHVKLQTALEMLRQKQQEAEKLEADIREEKASWKIQIDYDKTNVSADFEQLREILDWEESNELQNLEKEEEDILKSLTKSETEMVQQTQYMRELISELEHRLQGSMMDLLQGVDGIIKRIENMTLKKPKTFHKNQRRVFRAPDLKGMLDMFRELTDARRYWVDVTLAPNNISHAVIAEDKRQVSSRNPQIMYGARGTRYTFQTLVNFNYCTGVLGSQSITSGKHYWEVDVSKKSAWILGVCAGFQSDAMYNIEQNENYQPKYGYWVIGLQEGVKYSVFQDGSSHTPFAPFIVPLSVIICPDRVGVFVDYEACTVSFFNITNHGFLIYKFSQCSFSKPVFPYLNPRKCTVPMTLCSPSS [rhesus TRIM5α, 332-344 = GARGTRYTFQTLV]",0.999 ± 0.21
5,"MASGILLNVKEEVTCPICLELLTEPLSLHCGHSFCQACITANHKKSMLYKEGERSCPVCRISYQPENIQPNRHVANIVEKLREVKLSPEEGQKVDHCARHGEKLLLFCQEDSKVICWLCERSQEHRGHHTFLMEEVAQEYHVKLQTALEMLRQKQQEAEKLEADIREEKASWKIQIDYDKTNVSADFEQLREILDWEESNELQNLEKEEEDILKSLTKSETEMVQQTQYMRELISELEHRLQGSMMDLLQGVDGIIKRIENMTLKKPKTFHKNQRRVFRAPDLKGMLDMFRELTDARRYWVDVTLAPNNISHAVIAEDKRQVSSRNPQIMYGAPGTRYPSLTNFNYCTGVLGSQSITSGKHYWEVDVSKKSAWILGVCAGFQSDAMYNIEQNENYQPKYGYWVIGLQEGVKYSVFQDGSSHTPFAPFIVPLSVIICPDRVGVFVDYEACTVSFFNITNHGFLIYKFSQCSFSKPVFPYLNPRKCTVPMTLCSPSS [rhesus TRIM5α, 332-344 = GAPGTRYPSLT]",1.11 ± 1.1
6,"MASGILLNVKEEVTCPICLELLTEPLSLHCGHSFCQACITANHKKSMLYKEGERSCPVCRISYQPENIQPNRHVANIVEKLREVKLSPEEGQKVDHCARHGEKLLLFCQEDSKVICWLCERSQEHRGHHTFLMEEVAQEYHVKLQTALEMLRQKQQEAEKLEADIREEKASWKIQIDYDKTNVSADFEQLREILDWEESNELQNLEKEEEDILKSLTKSETEMVQQTQYMRELISELEHRLQGSMMDLLQGVDGIIKRIENMTLKKPKTFHKNQRRVFRAPDLKGMLDMFRELTDARRYWVDVTLAPNNISHAVIAEDKRQVSSRNPQIMYGAPGTRFTFPTLVNFNYCTGVLGSQSITSGKHYWEVDVSKKSAWILGVCAGFQSDAMYNIEQNENYQPKYGYWVIGLQEGVKYSVFQDGSSHTPFAPFIVPLSVIICPDRVGVFVDYEACTVSFFNITNHGFLIYKFSQCSFSKPVFPYLNPRKCTVPMTLCSPSS [rhesus TRIM5α, 332-344 = GAPGTRFTFPTLV]",0.905 ± 0.18
